From PubChem BioAssay AID1240 (Sanford-Burnham Center for Chemical Genomics, 2008) come the findings set out here.

The campaign covered roughly 50,000 compounds. About 800 (1.6%) showed an effect of 50% or more. The list shows a part of the results.

The target in the test is Bcl-2-like protein 10 (Homo sapiens) (UniProt Q9HD36). In words: TR3 peptide-Bcl-B binding displacers, biochemical primary FP assay, phenotype converters (AID 1240).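 Further: 0% = Bcl-B with tracer peptide and DMSO and 100% = tracer peptide lacking Bcl-B.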 The conditions noted are these: GST-Bcl-B / FITC-TR3 peptide fluorescence polarization; stronger effect = higher value; compound at 3.75 mg/L. (Fluorescence polarisation rises when a labelled molecule tumbles more slowly, as on binding a larger partner.)
Chain of UniProt Q9HD36 (Q9HD36 whole entry, looked up): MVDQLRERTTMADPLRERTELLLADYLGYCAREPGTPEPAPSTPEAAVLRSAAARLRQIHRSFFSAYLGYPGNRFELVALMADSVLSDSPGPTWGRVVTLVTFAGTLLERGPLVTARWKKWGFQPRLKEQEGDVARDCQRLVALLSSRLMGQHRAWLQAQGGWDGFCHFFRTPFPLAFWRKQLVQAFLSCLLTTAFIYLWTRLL
Consider `Cc1cc(C)c(C(CC(=NNC(N)=O)c2cccs2)C(C#N)C#N)c(C)c1` (stereo not given), for which the displacement is 4.4%.

`O=C(CSCc1ccccc1)Nc1ccc(Br)cc1C(=O)O`: the displacement is -2.8%.

Regarding `O=C(c1cnn2c(-c3ccccc3)cc(-c3ccccc3)nc12)N1CCSCC1`, the displacement turned out to be 11.8%.

On to `O=C(O)c1ccc2nc3cc(N4CCOCC4)c(N4CCOCC4)cc3nc2c1`, for which the displacement worked out at 31%.

Take `Clc1ccc(CSc2nnc(-c3ccccc3)o2)c(Cl)c1`: the displacement was -8.9%.

With `O=C(Nc1cccc2c1C(=O)c1ccccc1C2=O)c1ccc(S(=O)(=O)N2CCOCC2)cc1`, the displacement is 27.7%.

In the case of `O=Cc1ccc(OCc2ccccc2)cc1`, the displacement turned out to be 3.2%.

As to `COc1cc(CN2CCN(C3CCCC3)CC2)cc(OC)c1OC`, the displacement was 2.3%.

Take `C=CCc1cccc(/C=N/NC(=O)c2cc(-c3ccccc3)n[nH]2)c1O`: the displacement was -3.3%.

For the compound `CCOC(=O)c1sc2nccc3c2c1N=CN3c1ccccc1`, the displacement is -2.1%.

In the case of `CCOC(=O)c1c(-c2ccc(OCC)cc2)csc1N`, the displacement is 9.4%.

For the compound `Cc1nc2sc3c(c2c(=O)n1-n1cccc1)CCCC3`, the displacement came to 15.1%.

Regarding `CN1C2=NC(=O)/C(=C/c3ccc([N+](=O)[O-])s3)N2c2ccccc21`, the displacement was -5.9%.

In the case of `Cc1ccc(NC(=O)/C=C/C(=O)c2ccccc2)cc1`, the displacement worked out at 54.6%.

With `CC(C)(C)OC(=O)N1N=C(c2ccc(Cl)cc2)CC1(O)C(F)(F)F` (stereo not given), the displacement stood at 7.4%.

For the compound `O=C(/C=C/c1ccc2c(c1)OCO2)NC1CC2CCC1C2` (stereo not given), the displacement is -4.5%.

For `Cc1sc2nc(SCC(=O)NCCO)[nH]c(=O)c2c1C`, the displacement was determined as 0.4%.

Consider `COC(=O)c1ccccc1NC(=O)CN(c1cccc(C(F)(F)F)c1)S(C)(=O)=O`, for which the displacement was -1.5%.

Consider `CC1=C(C(=O)OCCOc2ccccc2)C(c2ccc(F)cc2)C2=C(CC(C)(C)CC2=O)N1` (stereo not given), for which the displacement is -9%.

`Cc1nc(Nc2nc(C)c3ccccc3n2)[nH]c(=O)c1C`: the displacement is -21.7%.

Turning to `COc1ccc(C2CC(=O)C3=C(C2)Nc2ccccc2NC3c2cccc(O)c2)cc1` (stereo not given), the displacement was -4.1%.

Regarding `Cc1cc2nc(-c3ccc(NC(=O)c4ccc5c(c4)OCCO5)cc3O)oc2cc1C`, the displacement was determined as 21.5%.

As to `CCP(=O)(c1ccccc1)C(C)(C)O` (stereo not given), the displacement worked out at 3%.

For the compound `N/C(=N\OC(=O)C(c1ccccc1)c1ccccc1)c1ccccc1`, the displacement is -7.2%.

On to `CCN(CC)CCCCCOc1cccc(Cl)c1`, for which the displacement was found to be 4.8%.

`COc1ccccc1C(=O)Nc1nc(-c2ccccc2)c(C)s1`: the displacement is -3%.

For the compound `Cc1nc(C)c(-c2csc(Nc3cccc(C(=O)O)c3)n2)s1`, the displacement amounted to 3.5%.

For `Cc1cccc(C)c1NC(=O)c1ccc(N(C)S(=O)(=O)c2ccccc2)cc1`, the displacement was -1.2%.

For `O=C(Nc1ccc(N2CCOCC2)cc1)c1cc(Br)ccc1Cl`, the displacement came out at 4.5%.

With `O=C(NC1CCCCC1)N(Cc1ccccc1)Cc1ccco1`, the displacement was -9.3%.

Consider `CCOC(=O)c1c(NC(=O)c2ccccc2Cl)sc2c1CCN(C(=O)OCC)C2`, for which the displacement amounted to 1.4%.

For the compound `COc1ccc(OCC(=O)N2c3ccccc3CCc3ccccc32)cc1`, the displacement turned out to be 12.1%.

For `CN(C)c1ccc(/C=C/c2[nH]c(=O)[nH]c(=O)c2[N+](=O)[O-])cc1`, the displacement was -4.1%.

In the case of `O=S(CC(O)COc1ccc(Cl)cc1)c1ccccn1` (stereo not given), the displacement came out at 4.8%.

Take `O=C(O)C(Cc1ccccc1)N1C(=O)/C(=C/c2cccc(Br)c2)SC1=S` (stereo not given): the displacement was 16.6%.

With `CC(NC(=O)c1ccc(F)cc1)C1CC1` (stereo not given), the displacement amounted to 4.6%.

`O=C1CC(c2ccccc2)CC2=C1C(c1ccc(Cl)c([N+](=O)[O-])c1)Nc1ccccc1N2` (stereo not given): the displacement is -3.7%.

For the compound `CC(=O)N1c2ccccc2NC2=C(C(=O)CC(C)(C)C2)C1CC1CC=C(C)C1(C)C` (stereo not given), the displacement amounted to 2.5%.

As for `O=C(Nc1nc2ccccc2n1Cc1ccccc1)c1ccccc1`, the displacement was -10.2%.

Regarding `CCN(CC)c1ccc(C2Nc3ccccc3NC3=C2C(=O)CC(c2ccccc2)C3)cc1` (stereo not given), the displacement was -4%.

`COc1cc(OC)cc(C(=O)Nc2c(C)cc(Br)cc2C)c1`: the displacement was determined as 12.1%.

As for `CCOc1ccc(NC(=O)C2=C(C)NC(=O)NC2c2ccc(C)cc2)cc1` (stereo not given), the displacement stood at 1%.

In the case of `COc1ccc(CNC(=O)c2cnn3c(C(F)(F)F)cc(-c4ccco4)nc23)cc1`, the displacement stood at 3.7%.

For `COc1ccc(OC)c(/C=C2/SC(=S)N(C)C2=O)c1`, the displacement is -4.8%.

For `CCC(=O)Nc1ccc(NC(=O)c2ccc3ccccc3c2)cc1`, the displacement worked out at 8.5%.

For the compound `CC1(CC(=O)N/N=C/c2cc(Br)c(O)cc2O)OCCO1`, the displacement is -13.2%.

Consider `O=C(Nc1sc2c(c1C(=O)Nc1ccccc1)CCC2)c1ccc([N+](=O)[O-])cc1`, for which the displacement was -0.4%.

With `O=C(COc1ccc(Cl)cc1)NNC(=O)C(c1ccccc1)c1ccccc1`, the displacement was -4.8%.

For `COc1ccccc1NC(=O)c1cccc2c(Br)cccc12`, the displacement was -5.4%.

Turning to `CCN(CC)c1ccc(/C=C2\C(=O)c3ccccc3C(=O)\C2=C(/O)c2ccccc2)cc1`, the displacement was 8%.

In the case of `CCOC(=O)c1c(NC(=O)C2(C)CC2(Br)Br)sc(C)c1-c1ccccc1` (stereo not given), the displacement is -1.9%.

`C=CCOc1ccc(/C=C2\C(=O)NC(C)=C2C(=O)OC)cc1`: the displacement was 14.5%.

Consider `COc1ccc(Cl)cc1N(CC(=O)N1CCC(C)CC1)S(=O)(=O)c1ccc(C)c([N+](=O)[O-])c1`, for which the displacement was -4.2%.

Take `O=C1C(c2ccccc2)=C(O)c2ccccc21`: the displacement was found to be 18.4%.

Regarding `COC(=O)CN1C(=O)/C(=C\c2ccc(C)cc2)SC1=S`, the displacement was 11.8%.

Regarding `Fc1cccc(CN2CCN(C3CCCC3)CC2)c1`, the displacement was -12.6%.

As for `CC1(C)Cc2c(sc3nc(Nc4ccccc4)n(N)c(=O)c23)CO1`, the displacement was -6.9%.

As to `O=C1S/C(=C/c2ccccc2)C(=O)N1CNc1ccc(I)cc1`, the displacement was -27.3%.

`COc1ccc(-n2cnnn2)c(OC)c1`: the displacement was -3.3%.

In the case of `CN1C(=O)NC(=O)/C(=C\c2cc(Cl)c(OCc3ccc(F)cc3)c(Cl)c2)C1=O`, the displacement was -8.8%.

As for `O=C1N=C(N2CCCC2)S/C1=C\c1cccc(Br)c1`, the displacement amounted to 2.1%.

In the case of `CC1CC(Nc2ccccc2)c2ccccc2N1C(=O)/C=C/c1ccco1` (stereo not given), the displacement is -4%.

On to `Cc1nc2ccccc2n1CC(O)COc1ccc(Br)cc1` (stereo not given), for which the displacement was -14.3%.

For the compound `Cc1cc(C)nc(/N=C(\N)Nc2ccc(Cl)cc2C(=O)c2ccccc2)n1`, the displacement turned out to be 10.3%.

With `O=C1C(=O)N(Cc2cccnc2)C(c2ccccc2)/C1=C(\O)c1ccccc1` (stereo not given), the displacement was -14.2%.

On to `O=C(Cc1ccc([N+](=O)[O-])cc1)NNC(=O)c1ccccc1`, for which the displacement is -7.2%.

As to `CC(C)(C)C1(O)CC(C(=O)O)(C(C)(C)C)OC1=O` (stereo not given), the displacement worked out at 7.4%.

Consider `COc1cccc(NC(=O)CN(CCc2ccccc2)S(=O)(=O)c2ccccc2)c1`, for which the displacement was -0.9%.

`COC(=O)c1ccc(NC(=O)c2ccc(C(=O)Nc3ccc(C(=O)OC)cc3)cc2)cc1`: the displacement is 1.2%.

Consider `NC(=O)c1ccccc1N=Cc1cc([N+](=O)[O-])ccc1O`, for which the displacement is -11%.
